# Test results: a collection of fitness landscapes (doi:10.1126/science.1257360)
# The other results are listed elsewhere or left out.
# B1: PhoQ; a variant is named by its letters at X, in order, P23837 (parent)
# chain: MKKLLRLFFPLSLRVRFLLATAAVVLVLSLAYGMVALIGYSVSFDKTTFRLLRGESNLFYTLAKWENNKLHVELPENIDKQSPTMTLIYDENGQLLWAQRDVPWLMKMIQPDWLKSNGFHEIEADVNDTSLLLSGDHSIQQQLQEVREDDDDAEMTHSVAVNVYPATSRMPKLTIVVVDTIPVELKSSYMVWSWFIYVLSANLLLVIPLLWVAAWWSLRPIEALAKEVRELEEHNRELLNPATTRELTSLVRNLNRLLKSERERYDKYRTTLTDLTHSLKTPLXXLQXXLRSLRSEKMSVSDAEPVMLEQISRISQQIGYYLHRASMRGGTLLSRELHPVAPLLDNLTSALNKVYQRKGVNISLDISPEISFVGEQNDFVEVMGNVLDNACKYCLEFVEISARQTDEHLYIVVEDDGPGIPLSKREVIFDRGQRVDTLRPGQGVGLAVAREITEQYEGKIVAGESMLGGARMEVIFGRQHSAPKDE
# Variants of: B1
# Assay: enrichment ratio after two sorts for PhoP signalling (ratio (wild type AVST 3.29)); higher = more functional
# Settings: with PhoP (E. coli)
row,Variant,enrichment ratio
1,RISN,≤ 0.25
2,AKSK,≤ 0.25
3,QITC,≤ 0.25
4,LKMH,≤ 0.25
5,RHEY,≤ 0.25
6,FHGM,≤ 0.25
7,RIYE,≤ 0.25
8,KTTD,≤ 0.25
9,RYAL,≤ 0.25
10,YAPV,≤ 0.25
11,WDGE,≤ 0.25
12,TWMA,≤ 0.25
13,MRCA,≤ 0.25
14,SCMW,6.03
15,YDWI,≤ 0.25
16,CHHL,≤ 0.25
17,KHQN,≤ 0.25
18,CPSN,≤ 0.25
19,HYHD,≤ 0.25
20,DWPH,≤ 0.25
21,HWTC,≤ 0.25

row,Variant,enrichment ratio
1,FMSR,≤ 0.25
2,KYQH,≤ 0.25
3,LCPQ,≤ 0.25
4,GWYD,≤ 0.25
5,QIGV,≤ 0.25
6,MVHP,0.338
7,AYYT,≤ 0.25
8,NVLV,≤ 0.25
9,EEAR,≤ 0.25
10,FGFW,≤ 0.25
11,YYCE,≤ 0.25
12,SAIM,11.6
13,FMDL,≤ 0.25
14,DITR,≤ 0.25
15,ISTY,≤ 0.25
16,VFMP,≤ 0.25
17,NIAN,≤ 0.25
18,IMCQ,≤ 0.25
19,ETFE,≤ 0.25
20,PDYS,≤ 0.25
21,FYDW,≤ 0.25

row,Variant,enrichment ratio
1,TYWQ,≤ 0.25
2,RNDN,≤ 0.25
3,FMFF,≤ 0.25
4,VDAE,≤ 0.25
5,VTRQ,≤ 0.25
6,RNSW,≤ 0.25
7,HFEA,≤ 0.25
8,PFMC,≤ 0.25
9,TPNG,≤ 0.25
10,MGGI,2.78
11,NKVW,≤ 0.25
12,KAWC,≤ 0.25
13,LNDC,≤ 0.25
14,KCLT,≤ 0.25
15,WVIC,≤ 0.25
16,FRFD,≤ 0.25
17,AKDC,≤ 0.25
18,YQRW,≤ 0.25
19,PTHN,≤ 0.25
20,QHAY,≤ 0.25
21,FRLS,≤ 0.25

row,Variant,enrichment ratio
1,RYVD,≤ 0.25
2,IDMI,≤ 0.25
3,IIIV,≤ 0.25
4,MKWI,≤ 0.25
5,SENT,2.04
6,RELS,0.575
7,VPVV,≤ 0.25
8,FYCH,≤ 0.25
9,RLAK,≤ 0.25
10,RPKV,≤ 0.25
11,YYVR,≤ 0.25
12,IYYY,≤ 0.25
13,ECTS,≤ 0.25
14,FWLR,≤ 0.25
15,YNIV,≤ 0.25
16,STNK,≤ 0.25
17,VLRT,≤ 0.25
18,NFTH,≤ 0.25
19,DKSL,≤ 0.25
20,DGIP,≤ 0.25
21,AMIG,3.62
